# The campaign covered roughly 310,000 compounds. About 14,000 (4.5%) showed an effect of 50% or more. Effects have a minus sign here. Some of the results follow.
# Molecular target: human ether-à-go-go-related gene (hERG) potassium channel (human, UniProt Q12809)
# Test: primary screen, population patch clamp on CHO cells stably expressing hERG
# 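Further: peak tail current of the secondary pulse compared with the same well before compound.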
# Chain of human ether-à-go-go-related gene (hERG) potassium channel (Q12809 whole entry, looked up): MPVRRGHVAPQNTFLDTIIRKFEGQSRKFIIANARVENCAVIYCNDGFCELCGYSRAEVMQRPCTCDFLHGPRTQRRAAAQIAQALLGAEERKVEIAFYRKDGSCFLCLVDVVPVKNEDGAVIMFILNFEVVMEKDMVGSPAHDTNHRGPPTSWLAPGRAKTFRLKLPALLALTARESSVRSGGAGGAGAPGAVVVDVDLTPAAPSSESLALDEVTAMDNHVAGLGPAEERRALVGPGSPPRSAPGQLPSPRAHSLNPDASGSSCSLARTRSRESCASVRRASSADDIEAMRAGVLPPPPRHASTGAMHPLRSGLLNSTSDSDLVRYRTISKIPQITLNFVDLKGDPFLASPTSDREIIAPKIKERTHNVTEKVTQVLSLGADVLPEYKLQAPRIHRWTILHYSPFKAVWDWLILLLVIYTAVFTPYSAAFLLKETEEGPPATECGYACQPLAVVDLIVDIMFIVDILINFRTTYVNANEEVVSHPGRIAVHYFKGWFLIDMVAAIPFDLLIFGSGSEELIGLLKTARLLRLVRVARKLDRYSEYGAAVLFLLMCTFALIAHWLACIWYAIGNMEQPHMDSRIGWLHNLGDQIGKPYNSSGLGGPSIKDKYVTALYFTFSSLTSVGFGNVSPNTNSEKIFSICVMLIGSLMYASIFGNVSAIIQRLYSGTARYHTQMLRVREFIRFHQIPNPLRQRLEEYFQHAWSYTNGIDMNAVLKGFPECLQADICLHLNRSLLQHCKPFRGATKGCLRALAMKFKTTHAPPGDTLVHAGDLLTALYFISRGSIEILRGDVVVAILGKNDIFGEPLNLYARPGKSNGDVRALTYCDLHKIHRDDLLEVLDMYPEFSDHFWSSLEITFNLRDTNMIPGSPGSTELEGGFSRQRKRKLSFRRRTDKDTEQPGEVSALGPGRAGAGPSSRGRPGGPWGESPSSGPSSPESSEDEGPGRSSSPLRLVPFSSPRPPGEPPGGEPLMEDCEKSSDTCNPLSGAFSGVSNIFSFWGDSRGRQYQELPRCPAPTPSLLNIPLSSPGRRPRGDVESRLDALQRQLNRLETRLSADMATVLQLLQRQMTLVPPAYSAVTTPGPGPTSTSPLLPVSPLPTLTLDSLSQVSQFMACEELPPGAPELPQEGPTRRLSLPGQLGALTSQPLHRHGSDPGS
row,Structure (SMILES),"hERG current change (%, negative = inhibition) at 10uM [%]"
1,CCOC(=O)c1cccc(NS(=O)(=O)c2cnc[nH]2)c1,17.5
2,CCc1ccc2c(c1)cc(CN(C(=S)Nc1cccc(C)c1)C1CC1)c1nnnn12,4.8
3,COc1ccc(N2CC(NC(=O)Nc3ccccc3)CC2=O)cc1 (stereo not drawn),-25.1
4,COc1ccc(S(=O)(=O)NC2(C(F)(F)F)NC(=O)N(CCc3ccc(OC)c(OC)c3)C2=O)cc1 (stereo not drawn),14.5
5,CC(C)(O)C#Cc1ccc(C(=O)N2CCC(C(N)=O)(N3CCCCC3)CC2)cc1,-4.64
6,O=C(COC(=O)c1ccccc1NCCO)NCCC1=CCCCC1,-27.7
7,Cc1cc(C(=O)Nc2ccon2)cs1,-15.3
8,O=C(Nc1ccncc1)C1CCN(S(=O)(=O)c2c(Cl)cccc2Cl)CC1,-29.2
9,O=C(NCCOC(=O)c1ccccc1)c1ccccc1,10.2
10,CCOCCCNC(=O)C(NC(=O)c1ccc2c(c1)OCO2)c1ccc(Cl)cc1 (stereo not drawn),-30.4
11,CCNc1ccc(Br)cc(C(=O)/C=C/c2ccc(Cl)cc2)c1=O,1.68
12,COc1ccccc1CNC(=O)C(=O)c1cn(CC(=O)N2CCCC2)c2ccccc12,15.1
13,Cc1cc(NC(=O)CCSc2ccccc2)ccc1Br,4.16
14,Cc1ccc(NC(=O)C2CCN(C(=O)OC(C)(C)C)CC2)cc1S(=O)(=O)N1CCCCC1,-12.3
15,CCOC(=O)c1[nH]c(C)c(C(=O)N2CCC3(CC2)OCCO3)c1C,15.1
16,Cc1ccc(S(=O)(=O)N(C)CC(=O)NCCCc2ccccc2)cc1,-22.2
17,O=C(O)CN1C(=O)NC2(CCCc3ccccc32)C1=O (stereo not drawn),19.3
18,O=C(Nc1ccc2c(c1)C(=O)NC2=O)c1ccc2ncsc2c1,4.82
19,Cc1ccc(C(=O)NCCn2cc(SCC(=O)N3CCOCC3)c3ccccc32)cc1,-2.69
20,COc1ccc2cc(C#N)c(SCC(=O)N3CC(=O)Nc4ccccc43)nc2c1,14.9
21,Cc1ccc(NC(=O)CCN2CCC(C(N)=O)CC2)cc1,17.3
22,COc1cccc(C(C)N(C)Cc2nc(COc3ccccc3)no2)c1 (stereo not drawn),-18.7
23,Cc1cccc(C(=O)Nc2nnc(S(=O)(=O)N3CCOCC3)s2)c1,11.2
24,COc1ccc(CNC(=O)CN(C)Cc2ccc(C(C)(C)C)cc2)cc1.O=C(O)C(=O)O,-4.44
